# Laboratory results published in PubChem BioAssay AID624417 (National Center for Advancing Translational Sciences (NCATS), 2012).
# The whole screen tested about 410,000 compounds, of which about 6,400 (1.6%) were called active. Inconclusive means that the source gave no clear call. Such entries were picked first, then a sample of the others. Calls follow the shape of the dose curve; as a rule, active = well fitted inhibition curve with a large enough effect; inconclusive = small, poorly fitted or top-dose-only effect; inactive = no such curve, though single readings can be large or run the other way. Potencies of inconclusive entries are left out as doubtful fits.
# Target: Glucagon-like peptide 1 receptor (Homo sapiens) (UniProt P43220)
# Experiment: qHTS of GLP-1 Receptor Inverse Agonists (Inhibition Mode); also: nearly all actives have a fitted effect of over 55% in size
# Details: HEK293 GLP-1R CRE-luciferase, luminescence, 24 h, GLP-1R form is constitutively active; activity change, negative = inhibition: at 38.3 µM (top of the series) unless noted
# Method in brief: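 Using stably transfected HEK293 (constitutively active GLP-1R, cAMP-luciferase reporter), compounds were incubated 24 hr and luciferase measured by luminescence.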
# % is scaled to controls: 0 for no effect and ±100 for the full control effect; potency is read from the fitted curve at half-maximal effect; tags tell the direction and shape of the fitted curve.
# Chain of UniProt P43220 (P43220 whole entry, looked up): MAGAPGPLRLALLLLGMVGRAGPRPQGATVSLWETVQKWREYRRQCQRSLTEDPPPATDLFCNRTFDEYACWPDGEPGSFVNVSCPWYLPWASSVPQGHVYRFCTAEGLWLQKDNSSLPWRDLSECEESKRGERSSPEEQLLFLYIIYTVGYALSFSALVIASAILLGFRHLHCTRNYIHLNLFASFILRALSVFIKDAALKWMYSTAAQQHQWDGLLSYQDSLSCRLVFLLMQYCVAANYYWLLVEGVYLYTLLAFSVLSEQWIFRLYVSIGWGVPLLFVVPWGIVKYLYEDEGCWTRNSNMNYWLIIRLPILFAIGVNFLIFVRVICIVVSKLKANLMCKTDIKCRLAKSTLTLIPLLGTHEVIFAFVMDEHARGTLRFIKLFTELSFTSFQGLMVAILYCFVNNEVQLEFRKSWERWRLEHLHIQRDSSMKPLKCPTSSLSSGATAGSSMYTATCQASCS
SMILES,Potency,"activity change, negative = inhibition"
N#CC1=C(SCc2ccccc2)NC(=O)CC1c1ccccc1 (configuration not stated),"inconclusive [inhibitor, partial curve, poor fit]",
CCC1CCCCN1CCCNC(=O)CSc1nc2nc(C)c(Cc3ccccc3)c(C)n2n1 (configuration not stated),"inconclusive [inhibitor, partial curve, poor fit]",
Cc1ccc(-c2csc3nc(SCC(=O)N(C)C)n(Cc4ccccc4)c(=O)c23)cc1,"inconclusive [inhibitor, partial curve, poor fit]",
C=CCNc1ccccc1S(=O)(=O)NCc1ccccc1,"inconclusive [inhibitor, single point]",
CCOc1ccccc1CNC(=O)c1cccc(NC(=O)c2nsc3ccccc23)c1,"inconclusive [inhibitor, single point]",
O=C(NCc1n[nH]c(=S)n1Cc1ccccc1)c1ccc(Cl)cc1Cl,inactive,
COc1ccc(N2CCN(c3cc(C)nc4ccc(OC)cc34)CC2)cc1,"inconclusive [inhibitor, partial curve, poor fit]",
COC(=O)c1c[nH]c2c1-c1cc(C(=O)OCc3ccccc3)n(S(=O)(=O)c3ccc(C)cc3)c1C(=O)C2=O,"inconclusive [inhibitor, single point]",
Cc1cccc(OCC(=O)N(C)CC(=O)Nc2cccc(F)c2)c1C,"inconclusive [inhibitor, partial curve, poor fit]",
Cc1ccc(C(NC(=O)N2CCCCC2)=C(Cl)Cl)cc1F,"inconclusive [inhibitor, single point]",
Cc1ccc(C(CC(=O)Nc2ccc(C)cc2C)N2Cc3ccccc3C2=O)cc1 (configuration not stated),"inconclusive [inhibitor, partial curve, poor fit]",
CCCCNC(=S)N/N=C/c1ccc(C)s1,"inconclusive [inhibitor, full curve]",
C=CCc1c(C)nc2c(OC)cccc2c1Cl,"inconclusive [inhibitor, single point]",
O=C1c2ccccc2C(Nc2ccc3c(c2)OCCO3)N1c1ccc(Cl)cn1 (configuration not stated),"inconclusive [inhibitor, partial curve]",
C=CCN(CC=C)CC(O)CN(c1cc([N+](=O)[O-])ccc1OC)S(=O)(=O)c1ccccc1 (configuration not stated),"inconclusive [inhibitor, single point]",
Cc1ccc(-c2[nH]c3ccccc3c2C(C[N+](=O)[O-])c2ccco2)cc1 (configuration not stated),"inconclusive [inhibitor, full curve, poor fit]",
Cc1cn([C@H]2C[C@H](O)[C@@H](CNC/C=C/c3ccccc3[N+](=O)[O-])O2)c(=O)[nH]c1=O,inactive,
CCCc1oc2ccc(NS(=O)(=O)c3ccc(OC)cc3)cc2c1C(=O)OCC,"inconclusive [inhibitor, partial curve, poor fit]",
O=C(Cn1c(SCc2cccc(F)c2)nc2ccncc21)Nc1ccc(Cl)cc1F,"inconclusive [inhibitor, partial curve]",
Cc1ccc(C(=O)Nc2ccccc2N2CCCCC2)o1,"inconclusive [inhibitor, single point]",
CCOc1cc(CNC(=O)C(NS(=O)(=O)c2cccs2)C(C)C)cc(OCC)c1OCC (configuration not stated),inactive,

SMILES,Potency,"activity change, negative = inhibition"
CCn1c2ccccc2c2cc(/C=N/n3cn[nH]c3=S)ccc21,"inconclusive [inhibitor, partial curve, poor fit]",
CC12CCC(=O)N1C(C(=O)Nc1cc(Cl)ccc1N1CCOCC1)CS2 (configuration not stated),"inconclusive [inhibitor, single point]",
CN1CCN(S(=O)(=O)c2ccc(Oc3ccc(Br)cc3F)nc2)CC1,"inconclusive [inhibitor, single point]",
CCCC(CC)Sc1nc2c([nH]1)c(=S)n(C)c(=O)n2C (configuration not stated),"inconclusive [inhibitor, full curve, poor fit]",
CCOc1ccc(NC(=O)CN(C)C(=O)CSCc2cccc(C)c2)cc1OCC,"inconclusive [inhibitor, single point]",
CCOc1ccc2nc(NC(=O)CSC3=NCCS3)sc2c1,inactive,
CC(C)c1ccc(/C=N/NC(=O)c2nnn(-c3nonc3N)c2CN2CCOCC2)cc1,"inconclusive [inhibitor, single point]",
Cc1cc(C)nc(/N=C(\N)Nc2ccccc2-c2ccccc2)n1,"inconclusive [inhibitor, partial curve, poor fit]",
COc1ccc(CNCC(O)(c2ccccc2)c2ccc(F)cc2)cc1 (configuration not stated),"inconclusive [inhibitor, single point]",
Cc1ccc(Nc2nnc(SCn3nnc4ccccc4c3=O)s2)cc1,"inconclusive [inhibitor, partial curve, poor fit]",
CCOC(=O)C1=C(C)NC(=O)CC1c1cc2c(cc1Br)OCO2 (configuration not stated),"inconclusive [inhibitor, single point]",
CCCCCOc1ccc2oc(=O)c3c(c2c1)CCCN3C(=O)CN1CCCC(C(=O)OCC)C1 (configuration not stated),"inconclusive [inhibitor, single point]",
Cc1cc(C)cc(NC(=O)Cn2nnc(C(=O)NCc3ccco3)c2N)c1,"inconclusive [inhibitor, single point]",inconclusive: -41.1% [inhibitor]
Clc1ccc(-c2nnc(-c3ccc(Br)cc3)c(N3CCSCC3)n2)cc1,inactive,
C=CCOc1ccc(/C=C/C(=O)OCC(=O)NCCCc2ccccc2)cc1,"inconclusive [inhibitor, single point]",
CCOC(=O)c1nnn(-c2nonc2N)c1CN(C)Cc1ccccc1,"inconclusive [inhibitor, single point]",
N/C(=N\OC(=O)C(c1ccccc1)c1ccccc1)c1ccccn1,"inconclusive [inhibitor, partial curve, poor fit]",
O=c1[nH]c(-c2ccccn2)nc(C(F)(F)F)c1Br,"inconclusive [inhibitor, single point]",
Cc1cccc(NC(=O)CNC(=O)Cn2ncc(Cl)c(Cl)c2=O)c1C,"inconclusive [inhibitor, single point]",
CC1(CCc2ccccc2)NC(=O)N(Cc2nnc(-c3ccccc3Br)o2)C1=O (configuration not stated),"inconclusive [inhibitor, single point]",
O=C(Nc1cccc(-c2csc(Nc3ccccc3)n2)c1)c1cc([N+](=O)[O-])cc(C(F)(F)F)c1,"inconclusive [inhibitor, full curve, poor fit]",

SMILES,Potency,"activity change, negative = inhibition"
COc1ccc(Cc2c(-c3ccc(F)cc3)nc3cc(C)c(Br)c(C)n23)c(C)c1,"inconclusive [inhibitor, partial curve, poor fit]",
Cc1ccc(Cl)cc1N1CCN(C(=O)Cn2nc(C)n3c(cc4sccc43)c2=O)CC1,inactive,
C=CCNC(=S)/N=c1/ccccn1Cc1ccccc1,"inconclusive [inhibitor, partial curve]",
Cc1cc(NC(=O)c2ccc(Cl)cc2)n(CCOC(=O)c2ccc(Cl)cc2)n1,"inconclusive [inhibitor, single point]",
CCCCCC1C(C(=O)OCC)C(=O)NC1(C(=O)OCC)C(=O)OCC (configuration not stated),"inconclusive [inhibitor, partial curve, poor fit]",
O=C(NC(=S)Nc1ccccc1Cl)c1ccco1,"inconclusive [inhibitor, single point]",
Cc1cc(C)cc(C(=O)Nc2c3c(nn2-c2ccccc2C)CS(=O)(=O)C3)c1,inactive,
CCCN(C(=O)CCn1cnc2onc(-c3ccc(F)cc3)c2c1=O)c1ccccc1C,"inconclusive [inhibitor, single point]",
COc1cc(OC)cc(-c2noc(-c3csc([C@@H]4O[C@H](CO)[C@H](O)[C@H](O)[C@H]4O)n3)n2)c1,"inconclusive [inhibitor, single point]",
COc1cc(C)c(CN2CCC(Oc3ccc(C(=O)N4CCCC4)cc3)CC2)cc1C,"inconclusive [inhibitor, partial curve, poor fit]",
COc1cccc(CNc2nc(NCc3cccs3)nc3ccsc23)c1,"inconclusive [inhibitor, single point]",
CC(=O)Oc1ccccc1C(=O)NC(C)CCc1ccccc1 (configuration not stated),"inconclusive [inhibitor, single point]",
COc1ccccc1N(CC(=O)N(CC(C)C)CC(C)C)S(=O)(=O)c1cccs1,"inconclusive [inhibitor, single point]",
CC(C)(C)c1ccccc1OCCN1CCCC1,inactive,
Cc1nc(SCC(=O)N2CCN(c3ccccc3)CC2)c2oc3ccccc3c2n1,inactive,
CS(=O)(=O)N(CC(=O)NCC1CCCO1)c1cc(Cl)cc(Cl)c1 (configuration not stated),inactive,
O=C(Nc1ccc(N2CCOCC2)cc1)c1ccc(Cl)c(S(=O)(=O)N2CCCC2)c1,"inconclusive [inhibitor, single point]",
COc1cc(-c2nnc(SCC(=O)N3CCCc4ccccc43)o2)cc(OC)c1OC,"inconclusive [inhibitor, partial curve, poor fit]",
CC1(c2nnc(-c3ccc(F)cc3)o2)CC(c2c(Cl)cccc2Cl)=NO1 (configuration not stated),"inconclusive [inhibitor, single point]",
